# Where “and” joins values, the source holds several entries; their conditions need not be identical. Equal entries are not always repeated. Out of some 340,000 compounds screened, about 12,000 (3.5%) were called active. The shares of active, inactive and inconclusive entries below differ from those in the screen. The call rests on the fitted dose curve; in most records, active means well fitted inhibition curve with a large enough effect; inconclusive means small, poorly fitted or top-dose-only effect, or another doubt; inactive means no such curve, though single readings can be large or run the other way. No potency is given beside an inconclusive call; the fits are too rough.
# Test: qHTS Assay for Inhibitors of Hepatitis C Virus (HCV)
# Conditions: Huh7.5.1 HCVcc-Cre (HCVcc is cell-culture hepatitis C virus) infection, luciferase reporter, 44 h; series mostly up to 41.8 µM
# Outline: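 Seed cells (1,000/well) for 4 h; treat with compound and infect with HCVcc-Cre, moi about 0.5. Incubate 44 h, then detect luciferase activity.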
# Potency means the concentration at half of the fitted maximal effect; tags describe the fitted curve by direction and shape.
row,Structure (SMILES),Potency
1,Cc1nc(-c2ccccn2)sc1C(=O)Nc1ccc(F)cc1F,inactive
2,Cc1cccc(N2CCN(Cc3c(C)n(C)n(-c4ccccc4)c3=O)CC2)c1C,"inconclusive [inhibitor, single point]"
3,COc1ccccc1C1CCCN1Cc1nc(-c2ccc(C)s2)oc1C (centres undefined),"inconclusive [inhibitor, partial curve]"
4,Cc1nc2ccccc2c(=O)n1/N=C/c1c(O)ccc2oc3c(c12)CCCC3,"inconclusive [inhibitor, partial curve]"
5,Clc1ccc(C2=Nn3c(nnc3-c3cc(-c4ccccc4)n[nH]3)SC2)cc1,"inconclusive [inhibitor, single point]"
6,Cc1ccc(C(C(=O)NC(C)(C)C)N(CC2CCCO2)C(=O)c2csnn2)cc1 (centres undefined),inactive
7,COc1cc2c(cc1NC(=O)c1cncc(Br)c1)oc1ccccc12,"inconclusive [inhibitor, full curve]"
8,Cc1cc(OCC(=O)Nc2cccnc2)c2c(C)cc(=O)oc2c1,inactive
9,CCC1=C(OC(=O)N(CC)CC)N2C(=O)OC(=NCC3CC3)[C@]2(Cc2ccccc2)[C@H]2C1=CC[C@H]1C(=O)N(c3ccccc3)C(=O)[C@H]12,"inconclusive [inhibitor, single point]"
10,CN1CCC(=NNC(=O)CN(c2ccccc2)S(=O)(=O)c2ccccc2)CC1,inactive
11,CC1Cc2nc(SCC(=O)NCc3ccco3)n(Cc3ccccc3)c(=O)c2S1 (centres undefined),"inconclusive [inhibitor, single point]"
12,CC1Sc2ccc(S(=O)(=O)N3CCC(C(=O)Nc4ccc(Cl)cc4)CC3)cc2NC1=O (centres undefined),"inconclusive [inhibitor, partial curve]"
13,NCCCn1c(C(=O)c2ccc(Cl)cc2)c2ccc([N+](=O)[O-])cc2[n+]1[O-],active: 10 µM
14,COc1ccccc1CCNC(=O)C(=O)NCC1OCCN1S(=O)(=O)c1ccc(Cl)cc1 (centres undefined),"inconclusive [inhibitor, single point]"
15,Cc1ccccc1N(C(=O)c1snc(C(N)=O)c1N)C(C(=O)NCc1ccccc1)c1ccc(O)cc1 (centres undefined),active: 5.62 µM
16,Cc1cc(C)c(C)c(C(=O)CSc2nnc(-c3ccc4[nH]c(C)c(C)c4c3)o2)c1C,"inconclusive [inhibitor, partial curve]"
17,CC1(C)NC(=O)N(CCCCOc2ccc3ccccc3c2Cl)C1=O,"inconclusive [inhibitor, partial curve]"
18,CC(C)NC(=S)NC(=O)c1ccc(-c2ccccc2)cc1,active: 14.1 µM
19,COc1ccc(C2CC(=O)Oc3c(C(CCN4CCCC(C)C4)c4ccc(N(C)C)cc4)c(OC)cc(OC)c32)cc1 (centres undefined),inactive
20,Clc1cccc(C2=NOC(c3nnc(-c4ccccc4)o3)C2)c1 (centres undefined),inactive
21,COC(=O)C1=C(c2ccc(F)cc2F)C[C@@H]2CC[C@H]1N2C(=O)NCCOc1ccccc1Cl,"inconclusive [inhibitor, single point]"
22,CCCOc1ccc(OCCOCCNCc2ccccc2)cc1,"inconclusive [inhibitor, partial curve]"
23,Cc1onc(-c2ccccc2)c1-c1ccnn1C(=O)NC(C)C,"inconclusive [inhibitor, single point]"

row,Structure (SMILES),Potency
1,CSc1ccccc1NC(=O)COc1ccc(S(=O)(=O)N2CCCC2)cc1,"inconclusive [inhibitor, full curve]"
2,CC(=O)Nc1cccc(/C(C)=N/NC(=O)c2c(-c3ccccc3Cl)noc2C)c1,"inconclusive [inhibitor, full curve, poor fit]"
3,CCOC(=O)c1c(C)n(C)c2ccc(OCC(O)Cn3c(C)nc4ccccc43)cc12 (centres undefined),active: 2.82 µM and active: 10 µM
4,N#Cc1c(Nc2ccccc2)c(/C=N/NCCO)c[nH]c1=O,"inconclusive [inhibitor, single point]"
5,CN(CCCC1CCCC1)C(=O)c1cc(COc2c(F)cccc2F)on1,"inconclusive [inhibitor, partial curve]"
6,CCOc1ccc(C(=O)O/N=C(\N)c2ccccn2)cc1,inactive
7,COc1cc(OC)cc(C(=O)NCCOC23CC4CC(CC(C4)C2)C3)c1,"inconclusive [inhibitor, partial curve]"
8,COc1ccc(/C(N)=N/OC(=O)c2c(-c3ccccc3Cl)noc2C)cc1OC,active: 12.6 µM
9,CCOC(=O)c1ccc(N2C(=O)C3C(C2=O)C(C(=O)c2ccc(Cl)cc2)N2CCCC32)cc1 (centres undefined),inactive
10,COc1ccc(CCNC(=O)c2cc3c(=O)n(C)c4ccccc4c3n2C)cc1OC,inactive
11,CSc1ccc(CN2CCC(Cc3ccccc3)CC2)cc1,"inconclusive [inhibitor, partial curve, poor fit]"
12,CC(=O)c1ccc(NC(=O)C(C)N(C)CC(=O)Nc2cccc(F)c2)cc1 (centres undefined),"inconclusive [inhibitor, single point]"
13,O=C(NNC(=O)c1csc(-c2cnccc2C(F)(F)F)n1)c1ccc(C(F)(F)F)cc1,"inconclusive [inhibitor, partial curve]"
14,O=C(Nc1ccc(O)cc1)c1cccc(Oc2ccc([N+](=O)[O-])cc2)c1,active: 11.2 µM
15,COc1ccc(NC(=O)c2cc(C(C)C)on2)c(OC)c1,inactive
16,Cc1cc(C)n2nc(SCC(=O)N3CCC(C(=O)O)CC3)nc2n1,inactive
17,CCn1nc(C)c(/C=N\NC(=O)c2ccc3c(c2)OCO3)c1C,"inconclusive [inhibitor, full curve, poor fit]"
18,CN(C)C(=O)c1cn(-c2ccccc2)nc1-c1cccs1,"inconclusive [inhibitor, partial curve]"
19,CCc1nc2ccccc2c(C(=O)OCC(=O)N(CC(C)C)c2c(N)n(Cc3ccccc3)c(=O)[nH]c2=O)c1C,"inconclusive [inhibitor, full curve]"
20,CC(C)(CNC(=O)c1ccc(Cl)c(S(=O)(=O)N2CCc3ccccc3C2)c1)N1CCOCC1,active: 7.08 µM
21,Cn1cc(Br)c(C(=O)NNC(=O)c2ccc(Cl)cc2)n1,inactive
22,NC(=O)CNC(=O)C1CCN(S(=O)(=O)c2ccc(-n3cnnn3)cc2)CC1,inactive
23,CCC(=O)Nc1ccc(C(=O)CSc2nnc(-c3ccc(O)cc3)n2CC2CCCO2)cc1 (centres undefined),"inconclusive [inhibitor, single point]"

row,Structure (SMILES),Potency
1,CC(C)Oc1cc(C(=O)N2CCC(N3CCCCC3)CC2)ccc1Nc1nnc(Cl)c(Nc2ccccc2S(C)(=O)=O)n1,inactive
2,O=[N+]([O-])c1ccc(Cl)c(S(=O)(=O)Nc2cccc(-c3ccc(N4CCCC4)nn3)c2)c1,"inconclusive [inhibitor, partial curve]"
3,COC(=O)C1=CN(Cc2ccccc2)C=C(C(=O)OC)C1c1ccc(O)c(OC)c1,inactive
4,COc1ccnc(N2CCN(c3ccc(Cl)cc3)CC2)c1C#N,active: 31.6 µM
5,Cc1nn(C(C)C(=O)NCCCN2CCCCCC2)c(=O)c2c1sc1ccccc12 (centres undefined),"inconclusive [inhibitor, single point]"
6,COC(=O)c1cc(C(=O)N2CCN(c3cccc(Cl)c3)CC2)cc([N+](=O)[O-])c1,inactive
7,Cc1ccc(Nc2nnc(SCC(=O)Nc3ncc(S(=O)(=O)c4ccc([N+](=O)[O-])cc4)s3)s2)cc1,"inconclusive [inhibitor, single point]"
8,COC(=O)Nc1nc(C)c(C(=O)c2ccccc2)s1,inactive
9,Cc1noc(C)c1COC(=O)c1ccc2c(c1)OCCO2,inactive
10,Cc1ccnc(NC(=O)C2CCN(S(=O)(=O)c3ccc4c(c3)CC(C)N4C(=O)C3CCC3)CC2)c1 (centres undefined),"inconclusive [inhibitor, single point]"
11,CCC(C)NC(=O)c1cc2c(=O)n3cccc(C)c3nc2s1 (centres undefined),"inconclusive [inhibitor, full curve]"
12,Cc1cc(C)c(C(=O)/C=C/c2ccc3c(c2)OCO3)c(=O)[nH]1,"inconclusive [inhibitor, partial curve]"
13,Fc1cccc(Cl)c1/C=N/Nc1ccccn1,"inconclusive [inhibitor, partial curve]"
14,Cn1c(SCc2ccccc2F)nnc1-c1ccccn1,inactive
15,COc1ccc(C)cc1NC(=O)CSCc1ccccc1C,"inconclusive [inhibitor, single point]"
16,CC1Cc2cc(S(=O)(=O)N3CCN(c4cccc(Cl)c4)CC3)ccc2N1C(=O)C1CC1 (centres undefined),"inconclusive [inhibitor, partial curve]"
17,Cc1ccc(S(=O)(=O)N(C)C)cc1NC(=O)COC(=O)/C(=C/c1ccc(F)cc1)c1cccs1,active: 11.2 µM
18,N#CC1=C(N)SC(C(=O)c2ccccc2)C1c1cccs1 (centres undefined),"inconclusive [inhibitor, single point]"
19,N#Cc1ccc(-c2csc(NC(=O)/C=C/c3cccs3)n2)cc1,inactive
20,C/C(=N\NC(=O)c1c(Br)c(C)nn1C)c1cccc(NC(=O)C2CCC2)c1,"inconclusive [inhibitor, single point]"
21,C=C(C)CN=c1scc(C)n1/N=C/c1ccco1,"inconclusive [inhibitor, single point]"
22,Cc1nc(-c2ccc(F)cc2)c(CC(=O)N(C)CC(=O)Nc2ccc(Cl)c(C(F)(F)F)c2)s1,inactive
23,CCN(CC)C(=O)c1sc(NC(=O)Cc2ccc(OC)cc2)c(C#N)c1C,"inconclusive [inhibitor, single point]"

# — PubChem BioAssay AID651820 (National Center for Advancing Translational Sciences (NCATS), 2012)
